Procedure: In table 1, the log P values were determined in accordance with EEC Directive 79/831 Annex V.A8 by HPLC (High Performance Liquid Chromatography) on a reversed-phase column (C 18), using the method described below:
temperature: 40° C.; mobile phases: 0.1% aqueous formic acid and acetonitrile; linear gradient from 10% acetonitrile to 95% acetonitrile;
Calibration was carried out using unbranched alkan-2-ones (comprising 3 to 16 carbon atoms) with known log P values (determination of the log P values by the retention times using linear interpolation between two successive alkanones). lambda-max-values were determined using UV-spectra from 200 nm to 400 nm and the peak values of the chromatographic signals.

Row | SMILES | logP
1 | Cc1nc2c(F)c(F)ccc2cc1Nc1ccnc(C(F)(F)F)c1[Si](C)(C)C [I.27] | 4.27
2 | Cc1cc2ncn(Cc3sccc3[Si](C)(C)C)c2cc1C [I.17] | 2.40
3 | C[Si](C)(c1cccs1)c1c(Oc2cnc3ccccc3c2)ccnc1F [I.11] | 4.33
4 | CCCC[Si](C)(C)c1c(Oc2cnc3ccccc3c2)ccnc1F [I.10] | 5.40
5 | Cc1nc2c(F)c(F)ccc2nc1Oc1nocc1[Si](C)(C)C [I.21] | 4.30
6 | CC(C)[Si](C)(C)c1c(Oc2cnc3ccccc3c2)ccnc1F [I.08] | 4.75
7 | COc1ccc([Si](C)(C)c2c(Oc3cnc4ccccc4c3)ccnc2F)cc1 [I.12] | 4.33
8 | C[Si](C)(c1ccccc1)c1c(Oc2cnc3ccccc3c2)ccnc1F [I.04] | 4.43
9 | Cc1nc2c(F)c(F)ccc2nc1Oc1nn(C)c(C(F)(F)F)c1[Si](C)(C)C [I.20] | 5.39
10 | CCC[Si](C)(C)c1c(Oc2cnc3ccccc3c2)ccnc1F [I.09] | 4.84
11 | C=C[Si](C)(C)c1c(Oc2cnc3ccccc3c2)ccnc1F [I.05] | 4.13
12 | CC[Si](C)(C)c1c(Oc2cnc3ccccc3c2)ccnc1F [I.07] | 4.35
13 | Cc1nc2c(F)c(F)ccc2nc1Oc1nn(C)c(C(F)(F)F)c1[Si](C)(C)O [I.22] | 3.33
14 | C[Si](C)(C)c1c(Oc2cnc3ccccc3c2)ccnc1Cl [I.13] | 3.39

From patent US20200231607A1, “TRISUBSTITUTEDSILYLHETEROARYLOXYQUINOLINES AND ANALOGUES” (Bayer Aktiengesellschaft, priority 2017, published 2020)
